The other results are listed elsewhere or left out. Most values come without repeats; read them as rough.
Legend:
Assay in all cases: cell count relative to DMSO control; melanoma cells; higher = more viable cells
Conditions in all cases: library dose: standard library concentration; 72 h
G361 = tested on: G361
IPC-298 = tested on: IPC-298
IST-MEL1 = tested on: IST-MEL1
LB2518-MEL = tested on: LB2518-MEL
LOXIMVI = tested on: LOXIMVI
MEL-HO = tested on: MEL-HO
MZ2-MEL = tested on: MZ2-MEL
MeWo = tested on: MeWo
RPMI7951 = tested on: RPMI7951
RVH-421 = tested on: RVH-421
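Further: cells treated in 1,536-well plates, then fixed and DAPI-stained, with nuclei counted from automated high-throughput microscope images.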

Row | SMILES | cell count (G361) | cell count (IPC-298) | cell count (IST-MEL1) | cell count (LB2518-MEL) | cell count (LOXIMVI) | cell count (MEL-HO) | cell count (MZ2-MEL) | cell count (MeWo) | cell count (RPMI7951) | cell count (RVH-421)
1 | Cc1cc(Nc2cc(N3CCN(C)CC3)nc(/C=C/c3ccccc3)n2)n[nH]1 + OCc1c[nH]c2ccccc12 [Indole-3-carbinol] (first compound 0.2 µM, partner dose 4 µM) | 101% | 73.7% | 92.7% | 75.5% | 73.7% | 96.3% | 82.9% | 74.6% | 95.7% | 101%
2 | Cc1cn(-c2cc(NC(=O)c3ccc(C)c(Nc4nccc(-c5cccnc5)n4)c3)cc(C(F)(F)F)c2)cn1 [nilotinib] + CC(=O)c1c(C)c2cnc(Nc3ccc(N4CCNCC4)cn3)nc2n(C2CCCC2)c1=O [palbociclib] (first compound 1 µM, partner dose 0.2 µM) | 65.3% | 74.4% | 84.8% | 71% | 78.9% | 78.4% | 64.3% | 65.9% | 54.1% | 73%
3 | Cn1c(=O)n(-c2ccc(C(C)(C)C#N)cc2)c2c3cc(-c4cnc5ccccc5c4)ccc3ncc21 + OCCn1cc(-c2cnc3nnn(Cc4ccc5ncccc5c4)c3n2)cn1 [PF04217903] (first compound 0.02 µM, partner dose 5 µM) | 62.2% | 87.2% | 68.2% | 82.4% | 106% | 68.5% | 102% | 72.6% | 111% | 76.5%
4 | Cc1cn(-c2cc(NC(=O)c3ccc(C)c(Nc4nccc(-c5cccnc5)n4)c3)cc(C(F)(F)F)c2)cn1 [nilotinib] + NC(=O)Nc1cc(-c2cccc(F)c2)sc1C(=O)N[C@H]1CCCNC1 [AZD7762] (first compound 1 µM, partner dose 0.1 µM) | 96% | 96.3% | 80.5% | 40.4% | 82.2% | 66.7% | 111% | 63.9% | 27.8% | 93.8%
5 | Cn1c(=O)n(-c2ccc(C(C)(C)C#N)cc2)c2c3cc(-c4cnc5ccccc5c4)ccc3ncc21 + C=CCNC1=C2C[C@@H](C)C[C@H](OC)[C@H](O)[C@@H](C)/C=C(\C)[C@H](OC(N)=O)[C@@H](OC)/C=C\C=C(/C)C(=O)NC(=CC1=O)C2=O [Tanespimycin] (first compound 0.02 µM, partner dose 0.01 µM) | 39.1% | 75.8% | 51.6% | 67.7% | 85.2% | 72.7% | 94.7% | 49.2% | 27.7% | 54.7%
6 | COc1ccc(C2=N[C@@H](c3ccc(Cl)cc3)[C@@H](c3ccc(Cl)cc3)N2C(=O)N2CCNC(=O)C2)c(OC(C)C)c1 [Nutlin-3] + Cn1c(Nc2ccc(C(F)(F)F)cc2)nc2cc(Oc3ccnc(-c4ncc(C(F)(F)F)[nH]4)c3)ccc21 [CHIR265] (first compound 0.5 µM, partner dose 0.4 µM) | 18.2% | 42.9% | 76.4% | 26.3% | 61.9% | 65.6% | 49.5% | 58.4% | 45.1% | 62.1%
7 | Cn1c(=O)n(-c2ccc(C(C)(C)C#N)cc2)c2c3cc(-c4cnc5ccccc5c4)ccc3ncc21 + COc1cc(N2CCC(N3CCN(C)CC3)CC2)ccc1Nc1ncc(Cl)c(Nc2ccccc2S(=O)(=O)C(C)C)n1 [NVP-TAE684] (first compound 0.02 µM, partner dose 0.4 µM) | 52.9% | 71.3% | 69.8% | 75.8% | 76.8% | 67.7% | 79.1% | 48.7% | 64.5% | 65.8%
8 | Cc1cc(Nc2cc(N3CCN(C)CC3)nc(/C=C/c3ccccc3)n2)n[nH]1 + COc1ccc(-c2ccc3c(N4CCOCC4)nc(N4C[C@@H](C)O[C@@H](C)C4)nc3n2)cc1CO [KU0063794] (first compound 0.2 µM, partner dose 0.1 µM) | 70.2% | 61.1% | 87.9% | 62.4% | 86% | 65.3% | 67.3% | 56.8% | 64.6% | 83.6%
9 | Cc1cc(Nc2cc(N3CCN(C)CC3)nc(/C=C/c3ccccc3)n2)n[nH]1 + CC(C)CCN1c2nc(Nc3cc(F)c(O)c(F)c3)ncc2N(C)C(=O)C1C [BID1870] (first compound 0.2 µM, partner dose 1 µM) | 70.9% | 77.7% | 69.2% | 82.7% | 57.9% | 74.5% | 90.3% | 70.6% | 68.9% | 85.9%
10 | COc1ccc(C2=N[C@@H](c3ccc(Cl)cc3)[C@@H](c3ccc(Cl)cc3)N2C(=O)N2CCNC(=O)C2)c(OC(C)C)c1 [Nutlin-3] + CN(C)S(=O)(=O)c1ccc2c(c1)/C(=C/c1cc3c([nH]1)CCCC3)C(=O)N2 [SU6656] (first compound 0.5 µM, partner dose 2 µM) | 64.7% | 78.2% | 88.4% | 74.6% | 80.5% | 104% | 125% | 88.3% | 78.6% | 87.4%
11 | CC(C)C[C@H](NC(=O)[C@H](Cc1ccccc1)NC(=O)c1cnccn1)B(O)O [Bortezomib] + Nc1ccn([C@@H]2O[C@H](CO)[C@@H](O)C2(F)F)c(=O)n1 [gemcitabine] (first compound 0.005 µM, partner dose 0.002 µM) | 0.979% | 8.23% | 7.65% | 2.03% | 39.5% | 20.2% | 2.7% | 10.1% | 3.85% | 10.7%
12 | COc1ccc(C2=N[C@@H](c3ccc(Cl)cc3)[C@@H](c3ccc(Cl)cc3)N2C(=O)N2CCNC(=O)C2)c(OC(C)C)c1 [Nutlin-3] + Cc1cc([N+](=O)[O-])ccc1NS(=O)(=O)c1cc(Cl)ccc1Cl [FH535] (first compound 0.5 µM, partner dose 5 µM) | 35.5% | 60.4% | 53.3% | 77.4% | 71.6% | 48.2% | 83.2% | 91.3% | 84.8% | 54.1%
13 | Cn1c(=O)n(-c2ccc(C(C)(C)C#N)cc2)c2c3cc(-c4cnc5ccccc5c4)ccc3ncc21 + Clc1ccc(Nc2nnc(Cc3ccncc3)c3ccccc23)cc1 [vatalanib] (first compound 0.02 µM, partner dose 10 µM) | 60.6% | 56.2% | 58.4% | 51.9% | 53.3% | 47.9% | 34.7% | 45.5% | 53.2% | 74.7%
14 | Cc1cc(Nc2cc(N3CCN(C)CC3)nc(/C=C/c3ccccc3)n2)n[nH]1 + CC(=O)c1c(C)c2cnc(Nc3ccc(N4CCNCC4)cn3)nc2n(C2CCCC2)c1=O [palbociclib] (first compound 0.2 µM, partner dose 0.2 µM) | 58.9% | 75.1% | 76.2% | 45% | 88% | 78.6% | 60.7% | 55.2% | 77.2% | 162%
15 | COc1ccc(C2=N[C@@H](c3ccc(Cl)cc3)[C@@H](c3ccc(Cl)cc3)N2C(=O)N2CCNC(=O)C2)c(OC(C)C)c1 [Nutlin-3] + N#Cc1c(O)c2c(-c3ccc(-c4ccccc4O)cc3)csc2[nH]c1=O [A769662] (first compound 0.5 µM, partner dose 10 µM) | 81.7% | 109% | 101% | 92.2% | 95% | 102% | 104% | 101% | 91.2% | 89.2%
16 | COc1ccc(C2=N[C@@H](c3ccc(Cl)cc3)[C@@H](c3ccc(Cl)cc3)N2C(=O)N2CCNC(=O)C2)c(OC(C)C)c1 [Nutlin-3] + O=S(=O)(c1ccccc1)N(CC(F)(F)F)c1ccc(C(O)(C(F)(F)F)C(F)(F)F)cc1 [T0901317] (first compound 0.5 µM, partner dose 7 µM) | 55.1% | 80.9% | 95.6% | 65.8% | 97.4% | 83.3% | 88% | 70.5% | 91.7% | 65%
17 | COc1ccc(C2=N[C@@H](c3ccc(Cl)cc3)[C@@H](c3ccc(Cl)cc3)N2C(=O)N2CCNC(=O)C2)c(OC(C)C)c1 [Nutlin-3] + Oc1nc(-c2ccc(C(F)(F)F)cc2)nc2c1CSCC2 [XAV939] (first compound 0.5 µM, partner dose 10 µM) | 81.6% | 92.3% | 87.4% | 74% | 108% | 79.2% | 106% | 99.7% | 105% | 96.6%
18 | COc1ccc(C2=N[C@@H](c3ccc(Cl)cc3)[C@@H](c3ccc(Cl)cc3)N2C(=O)N2CCNC(=O)C2)c(OC(C)C)c1 [Nutlin-3] + COc1cc2c(Oc3ccc4[nH]c(C)cc4c3F)ncnc2cc1OCCCN1CCCC1 [cediranib] (first compound 0.5 µM, partner dose 2 µM) | 86.2% | 106% | 102% | 81.2% | 58.9% | 101% | 110% | 110% | 105% | 55.4%
